The other results are listed elsewhere or left out.
Legend:
[1] = system: HSkMC (human skeletal muscle cells); assay: cytotoxicity call (relative viability < 0.9); conditions: 10 µM
[2] = system: HepG2; assay: cytotoxicity call (relative viability < 0.9); conditions: 10 µM
[3] = system: S. aureus RN4220; assay: growth inhibition call (relative growth <= 0.2); conditions: 50 µM

Compound	cytotoxicity call [1]	cytotoxicity call [2]	growth inhibition call [3]
O=C(O)c1n[nH]c2c1C[C@H]1C[C@@H]21	inactive	inactive	inactive
COc1ccc(CN(C)C[C@@H]2OCCCC[C@H](C)Oc3ccc(NC(=O)NC(C)C)cc3C(=O)N([C@@H](C)CO)C[C@@H]2C)cc1	inactive	inactive	inactive
C[C@@H]1CN([C@@H](C)CO)C(=O)Cc2cc(NC(=O)Nc3cccc4ccccc34)ccc2O[C@H]1CN(C)Cc1ccc2c(c1)OCO2	inactive	active	inactive
O=C1O[C@@H](c2ccccc2)[C@@H](c2ccccc2)N2[C@@H](c3ccc(O)cc3)[C@]3(C(=O)Nc4ccc(C#CC5(O)CCCCCC5)cc43)[C@@H](C(=O)NC[C@H](O)c3ccccc3)[C@H]12	inactive	inactive	inactive
C[C@H](CO)N1C[C@H](C)[C@H](CN(C)S(C)(=O)=O)Oc2ccc(NS(=O)(=O)c3cccs3)cc2CC1=O	inactive	inactive	inactive

From the antibiotic and cytotoxicity screens of Wong et al. (2023)
